Experimental data published in PMC4943851.
These are yes or no findings as the source states them, for the method shown. In cells and extracts the contact can be indirect. Some entries that bind do so weakly or less than the wild type.

Protein sequences, listed by entry. Tags and fused reporters are not part of them. Lines headed by an entry give the natural chain unless they say otherwise; changes in a name come on top. Chains listed by the source or under a name are the forms on record and can include a tag or linker. Residues count along the entry.
UniProt Q00987: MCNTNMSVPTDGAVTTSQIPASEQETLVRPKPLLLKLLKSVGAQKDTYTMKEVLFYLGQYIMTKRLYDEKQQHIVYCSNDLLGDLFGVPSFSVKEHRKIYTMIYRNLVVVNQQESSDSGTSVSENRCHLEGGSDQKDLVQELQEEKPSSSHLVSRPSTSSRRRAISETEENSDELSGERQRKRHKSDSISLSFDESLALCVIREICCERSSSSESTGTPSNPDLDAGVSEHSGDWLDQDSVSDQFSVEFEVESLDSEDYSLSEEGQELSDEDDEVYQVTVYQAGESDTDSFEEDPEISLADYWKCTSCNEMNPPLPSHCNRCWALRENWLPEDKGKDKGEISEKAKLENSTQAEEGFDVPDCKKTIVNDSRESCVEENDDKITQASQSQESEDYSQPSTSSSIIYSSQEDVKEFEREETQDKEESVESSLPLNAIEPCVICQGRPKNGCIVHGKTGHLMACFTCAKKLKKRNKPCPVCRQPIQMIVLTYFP
GST-tagged MDM2 fragment aa 1-301: residues 1-301 of Q00987
GST-tagged MDM2 fragment aa 1-150: residues 1-150 of Q00987
GST-tagged MDM2 fragment aa 284-491: residues 284-491 of Q00987
UniProt P08138: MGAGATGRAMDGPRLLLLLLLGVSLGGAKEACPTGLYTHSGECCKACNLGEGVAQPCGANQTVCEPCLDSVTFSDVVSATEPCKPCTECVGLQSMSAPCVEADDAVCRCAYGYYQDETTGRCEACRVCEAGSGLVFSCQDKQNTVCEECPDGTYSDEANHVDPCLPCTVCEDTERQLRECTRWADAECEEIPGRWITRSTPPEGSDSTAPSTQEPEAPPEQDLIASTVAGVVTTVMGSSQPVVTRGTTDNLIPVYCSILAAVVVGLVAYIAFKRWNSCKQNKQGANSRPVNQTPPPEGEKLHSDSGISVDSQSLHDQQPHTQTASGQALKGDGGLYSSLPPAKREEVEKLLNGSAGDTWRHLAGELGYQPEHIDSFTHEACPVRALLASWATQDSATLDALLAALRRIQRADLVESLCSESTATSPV

Experiments:
Flag-MDM2 = Flag-MDM2 (UniProt Q00987); test: co-IP; H1299 cells transfected with the tagged plasmids; ~500 to 1000 ug of proteins incubated with the indicated antibody at 4°C for 4 hr or overnight, protein A or G beads, washed at least three times with lysis buffer; immunoblot
Flag-p53 = Flag-p53 (UniProt P04637); test: as above
HA-MDM2 = HA-MDM2 (UniProt Q00987); test: as above
[1] = molecular target: V5-tagged MDM2 fragment aa 1-150 (UniProt Q00987); test: as above
[2] = molecular target: V5-tagged MDM2 fragment aa 1-301 (UniProt Q00987); test: as above
[3] = molecular target: V5-tagged MDM2 fragment aa 284-491 (UniProt Q00987); test: as above
[4] = molecular target: flag-tagged p53 fragment aa 101-300 (UniProt P04637); test: as above
[5] = molecular target: p53 (untagged, ectopic, H1299) (UniProt P04637); test: as above
[6] = molecular target: GST-tagged MDM2 fragment aa 1-150 (UniProt Q00987); test: pull-down; 500 ng of GST-MDM2 fragments, GST-p53 fragments or GST only on glutathione-Sepharose 4B beads, incubated with cell lysates with mammalian-expressed Myc-NGFR at 4°C for 4 hr; washed three times with GST lysis buffer (50 mM Tris/HCl pH 8.0, 0.5% NP-40, 1 mM EDTA, 150 mM NaCl, 10% glycerol); immunoblot with anti-NGFR; only the target purified
[7] = molecular target: GST-tagged MDM2 fragment aa 1-301 (UniProt Q00987); test: as above
[8] = molecular target: GST-tagged MDM2 fragment aa 284-491 (UniProt Q00987); test: as above
[9] = molecular target: GST-tagged full-length p53 (UniProt P04637); test: as above
[10] = molecular target: GST-tagged p53 fragment aa 100-290 (UniProt P04637); test: as above
[11] = molecular target: endogenous MDM2 (H460 cells) (human (endogenous in H460)) (UniProt Q00987); test: co-IP; nuclear fraction of H460 cells stably expressing NGFR; immunoblot
[12] = molecular target: endogenous p53 (H460 cells) (human (endogenous in H460)) (UniProt P04637); test: as above
[13] = molecular target: p53 (untagged, ectopic, in MEF p53-/-;Mdm2-/- cells) (UniProt P04637); test: co-IP; MEF p53-/-;Mdm2-/- cells transfected with plasmids encoding Myc-NGFR or p53, alone or together; immunoblot
[14] = molecular target: endogenous MDM2 (SK-MEL-147 cells) (human (endogenous in SK-MEL-147)) (UniProt Q00987); test: co-IP; nuclear fraction of SK-MEL-147 cells, endogenous proteins, reciprocal; immunoblot
[15] = molecular target: endogenous p53 (SK-MEL-147 cells) (human (endogenous in SK-MEL-147)) (UniProt P04637); test: as above
[16] = molecular target: endogenous MDM2 (SK-N-SH cells) (human (endogenous in SK-N-SH)) (UniProt Q00987); test: co-IP; endogenous proteins of SK-N-SH cells treated with Doxorubicin for 12 hr and MG132 for 6 hr; immunoblot
[17] = molecular target: endogenous p53 (SK-N-SH cells) (human (endogenous in SK-N-SH)) (UniProt P04637); test: as above
V5-p53 = V5-p53 (UniProt P04637); test: co-IP; H1299 cells transfected with the tagged plasmids; ~500 to 1000 ug of proteins incubated with the indicated antibody at 4°C for 4 hr or overnight, protein A or G beads, washed at least three times with lysis buffer; immunoblot

Myc-NGFR (nerve growth factor receptor) (from UniProt P08138 29-427)
binding (Flag-MDM2): binds | binding (Flag-p53): binds | binding (HA-MDM2): binds | binding [1]: no binding | binding [2]: no binding | binding [3]: binds | binding [4]: binds | binding [5]: binds | binding [6]: no binding | binding [7]: no binding | binding [8]: binds | binding [9]: binds | binding [10]: binds

NGFR stably expressed in H460 cells (from UniProt P08138 29-427) (receptor)
binding [11]: binds | binding [12]: binds

Myc-tagged NGFR fragment aa 273-427 (from UniProt P08138 273-427) (domain or fragment)
binding (Flag-MDM2): no binding

Myc-NGFR (in MEF p53-/-;Mdm2-/- cells) (from UniProt P08138 29-427) (receptor)
binding [13]: binds

endogenous NGFR (SK-MEL-147 cells) (from UniProt P08138 29-427) (receptor)
binding [14]: binds | binding [15]: binds

endogenous NGFR (SK-N-SH cells) (from UniProt P08138 29-427) (receptor)
binding [16]: binds | binding [17]: binds

Myc-tagged NGFR fragment aa 1-272 (from UniProt P08138 29-272) (domain or fragment)
binding (Flag-MDM2): binds | binding (V5-p53): binds
